These results are taken from ChEMBL document CHEMBL4888484, “Replenishing the malaria drug discovery pipeline: Screening and hit evaluation of the MMV Hit Generation Library 1 (HGL1) against asexual blood stage Plasmodium falciparum ,using a nano luciferase reporter read-out” (2022).

SMILES strings stand for the structures. Hit rate of the full screen: of about 150,000 compounds, about 540 (0.36%) showed an effect of 50% or more. The list shows a part of the results.

In this experiment the test system is Plasmodium falciparum. Briefly: Primary screen in NF54 nanoGlo assay, in single point, at 2uM, 72h; a lower Z score goes with more inhibition. The class given is functional, Erythrocyte. As to conditions: timepoint 72 hour.
`O=C(Cc1ccccc1)N(Cc1ccco1)Cc1c(-c2ccc(F)cc2)noc1N1CCOCC1`: the % Inhibition – broadly, the relative decrease from the control value, in per cent – is reported as -2% and the Z score stood at 0.25.

As for `CCNS(=O)(=O)[C@H]1CCN(c2cccc(C)n2)C1`, the “% Inhibition” value is recorded as -4% and the Z score is 0.41.

As to `C[C@H]1CCCN(S(=O)(=O)c2cc(C(=O)NCc3ccccc3Cl)n(C)c2)C1`, the “% Inhibition” value is 0% and the Z score was 0.04.

In the case of `CC12CNCC(C)(CN(Cc3ccccc3Br)C1)C2`, the “% Inhibition” value is recorded as -13% and the Z score turned out to be 1.19.

Turning to `O=C(CN1CCOC[C@@H]1CC1CCC1)Nc1nc(C2CC2)no1`, the “% Inhibition” value was -13% and the Z score is recorded as 1.84.

Take `Cc1ncsc1CCC(=O)Nc1cccc(N2C(=O)CC[C@@H]2C)c1`: the “% Inhibition” value is recorded as -2% and the Z score was 0.31.

For the molecule `COc1ccc(C(=O)NC2CCN(c3ccccc3C(=O)N(C)C3CCCCC3)CC2)cc1`, the “% Inhibition” value was -16% and the Z score was found to be 2.54.

As to `Cc1cc(C(=O)N2CCC3(CCC(=O)N(C[C@H](C)O)C3)CC2)c(=O)[nH]c1C`, the “% Inhibition” value is -10% and the Z score amounted to 1.73.

As for `CN1c2ccccc2C(C)(C)[C@@]12CC(c1ccc(-c3ccccc3)cc1)=NO2`, the “% Inhibition” value is -5% and the Z score was 0.67.

Take `CCCNC(=O)N[C@H]1[C@H](O)[C@@H](n2cc(Cl)cn2)[C@@H]2OC[C@H]1O2`: the “% Inhibition” value is reported as 27% and the Z score was -3.09.

Regarding `FC(F)C(F)(F)COCCN1CCC2OCCCC2C1` (centres undefined), the “% Inhibition” value was -11% and the Z score is listed as 1.17.

For the molecule `CCOc1ccc(/C=C2\CCCC3C2=NN(C(=O)c2cc4nc(-c5ccc(C(C)C)cc5)cc(C(F)(F)F)n4n2)C3c2ccc(OCC)cc2)cc1` (centres undefined), the “% Inhibition” value is reported as -31% and the Z score is 3.69.

With `Cc1nc(CNC(=O)Nc2ccccc2OCC(F)F)no1`, the “% Inhibition” value is reported as 3% and the Z score is listed as -0.37.

Regarding `CCN1CCN(c2ncc(-c3cc(=O)[nH]c(N4CCN(c5ccccc5)CC4)n3)c(C)n2)CC1`, the “% Inhibition” value is listed as -17% and the Z score is given as 2.47.

Turning to `O=C(N[C@H]1C[C@@](CO)(c2ccccc2)C1)C1=C[S@@+]([O-])CCC1`, the “% Inhibition” value is 30% and the Z score is reported as -3.35.

In the case of `O[C@H](Cn1nc(C(F)(F)F)c2cnccc21)CC(F)(F)F`, the “% Inhibition” value worked out at 34% and the Z score is listed as -3.81.

For the molecule `O=C(NCc1ccccn1)c1cn(-c2cc(F)c(F)c(F)c2)c(=O)c2ccccc12`, the “% Inhibition” value is -3% and the Z score turned out to be 0.37.

Regarding `Cc1ccccc1[C@H]1CCN(c2ccc(NC(=O)c3ccc(Cl)cc3)c(C(=O)O)c2)C1`, the “% Inhibition” value amounted to 38% and the Z score is reported as -5.49.

Turning to `Nc1ncccc1CN1CCCn2nc(CN3CCC[C@H](O)C3)cc2C1`, the “% Inhibition” value was -10% and the Z score is recorded as 1.21.

On to `C#CCCCC(=O)N1CCS(=O)(=O)C(CC)(CC)C1`, for which the “% Inhibition” value was found to be 5% and the Z score is listed as -0.78.

In the case of `Cn1nc(NC(=O)NC[C@H](O)C(F)(F)F)cc1C(F)(F)F`, the “% Inhibition” value is on record as -13% and the Z score worked out at 2.32.

Turning to `COc1ccc(C(=O)N(Cc2ccccc2)CC2CCOCC2)cn1`, the “% Inhibition” value is -3% and the Z score is reported as 0.43.

Regarding `CCn1nc(Cn2cncn2)nc1[C@H]1CCCC[C@H]1C(=O)c1ccc(C)cc1`, the “% Inhibition” value is on record as -9% and the Z score came to 1.51.

Take `CCC(CC)C(=O)Nc1ccc(Cl)cc1C`: the “% Inhibition” value is on record as 3% and the Z score is recorded as -0.42.

`CN(C)c1cc(C(F)(F)F)nc(N2CCC(CO)CC2)n1`: the “% Inhibition” value was -3% and the Z score amounted to 0.39.

As to `C[C@@H](CN1CCOCC1)NC(=O)c1ccc(Br)o1`, the “% Inhibition” value is listed as -10% and the Z score was 1.35.

As to `O=C(Nc1ccc(Cl)cc1OCc1ccccc1)N1CC[C@H](O)C(F)(F)C1`, the “% Inhibition” value is -5% and the Z score was found to be 1.

On to `COC(=O)[C@H]1CCc2nnc(Cc3ccc(F)cc3)n2C1`, for which the “% Inhibition” value is recorded as -9% and the Z score is 1.42.

For `O=S(=O)(Cc1cc2c(cc1Br)OCCO2)c1cccc[n+]1[O-]`, the “% Inhibition” value is listed as -5% and the Z score stood at 0.74.

As to `Cc1cc(C(=O)NCc2cccnc2N2CCOCC2)sc1C`, the “% Inhibition” value is reported as -9% and the Z score was found to be 1.75.

Consider `C[C@]1(CNC(=O)c2cccc(-n3cncn3)n2)CCCCO1`, for which the “% Inhibition” value was -21% and the Z score is 2.61.

With `N#Cc1ccc(N2CCCC(NC(=O)C3CCC(F)(F)C3)C2)c(F)c1` (centres undefined), the “% Inhibition” value stood at 12% and the Z score is -1.63.

Turning to `Cc1onc(C(=O)NCCCc2nnc3ccccn23)c1CO`, the “% Inhibition” value is -4% and the Z score was 0.82.

As to `O=C(Cn1c(=O)n(Cc2ccco2)c(=O)c2cc(Cl)ccc21)NC[C@H]1CCCO1`, the “% Inhibition” value came to 0% and the Z score was 0.01.

With `O=C(CCN(CCc1cccc(F)c1)C1CC1)N1CCCCC1`, the “% Inhibition” value was -13% and the Z score is 1.59.

On to `CCN(Cc1c(CO)cnc(C)c1O)c1ncnc2c1ncn2CC`, for which the “% Inhibition” value was -20% and the Z score amounted to 1.68.

As to `O=C(CN1CCOCC1)N1CCC[C@H](N(Cc2cccnc2)C(=O)C2CCC2)C1`, the “% Inhibition” value was -3% and the Z score stood at 0.48.

Turning to `Cc1ccc(-c2nccn2C[C@H]2CC(=O)N(C3CC3)C2)c(Cl)c1Cl`, the “% Inhibition” value is on record as -2% and the Z score turned out to be 0.41.

Turning to `Cc1ccc(N2C[C@@H](n3ccnc3-c3[nH]cnc3C)CC2=O)cc1`, the “% Inhibition” value was found to be 1% and the Z score is listed as -0.19.

In the case of `CN1CCN([C@H]2CCN(c3cccc(C#N)n3)C[C@H]2CCCO)CC1`, the “% Inhibition” value is given as -14% and the Z score amounted to 1.33.

As to `O=S(=O)(c1ccc2c(c1)CCO2)N1CCC[C@H](c2nccs2)C1`, the “% Inhibition” value is recorded as -6% and the Z score came to 0.73.

As to `Cc1ccc(C(=O)[C@@H](NC(=O)c2ccco2)N2CCOCC2)cc1`, the “% Inhibition” value worked out at 2% and the Z score is -0.24.

`CCC(CC)c1cc(C(=O)NCCc2cn3c(n2)CCCC3)on1`: the “% Inhibition” value was -3% and the Z score turned out to be 0.32.

On to `Cc1nscc1C(=O)N1CCOc2cccc(F)c21`, for which the “% Inhibition” value turned out to be 1% and the Z score is listed as -0.13.

`CCN1C[C@@H](CN(C)C(=O)Cc2ccc(F)cc2Cl)CC1=O`: the “% Inhibition” value is -18% and the Z score was 2.05.

Take `Cn1cc(CN2CCN3C(=O)NC[C@H]3C2)c2ccccc21`: the “% Inhibition” value is on record as 14% and the Z score is -1.63.

`Cc1noc(C)c1CNc1nccn1CC(C)C`: the “% Inhibition” value is 4% and the Z score is listed as -0.48.

`COCCn1nnnc1[C@]1(N2CCOCC2)CCCN(C(=O)c2cccc(OC)c2)C1`: the “% Inhibition” value worked out at 0% and the Z score is -0.02.

For `O=C(Cc1cccnc1)NCc1ccnc(N2CCCC2=O)c1`, the “% Inhibition” value worked out at 5% and the Z score is -0.85.

On to `CCCCN1C(=O)c2cc(C(=O)N3CCN(c4ccc(F)cc4)CC3)nn2C[C@@]1(C)C(=O)NC1CCCC1`, for which the “% Inhibition” value is on record as 23% and the Z score is -2.72.

Turning to `COc1ccc(NC(=O)c2cnc(-n3nc(C)cc3C)nc2N)cc1`, the “% Inhibition” value came to 17% and the Z score is -2.52.

As to `CCN(C(=O)c1cn(Cc2cccs2)nn1)[C@@H](C)c1ccncc1`, the “% Inhibition” value is recorded as -1% and the Z score stood at 0.12.
